Measured values taken from patent US20240132593A1 (published 2024).
Values joined by “and” are separate entries in the source; they are usually repeats but may differ in a detail not shown here. Equal entries are not always repeated. Where two headings read alike, the source gives them in different places.

T1: immunoglobulin gamma Fc receptor 1 (FcγR1) (biotinylated, AlphaLisa binding kit Perkin Elmer #AL3081C) (UniProt P12314 16-288, biotinylated (sites not given))
T1 chain: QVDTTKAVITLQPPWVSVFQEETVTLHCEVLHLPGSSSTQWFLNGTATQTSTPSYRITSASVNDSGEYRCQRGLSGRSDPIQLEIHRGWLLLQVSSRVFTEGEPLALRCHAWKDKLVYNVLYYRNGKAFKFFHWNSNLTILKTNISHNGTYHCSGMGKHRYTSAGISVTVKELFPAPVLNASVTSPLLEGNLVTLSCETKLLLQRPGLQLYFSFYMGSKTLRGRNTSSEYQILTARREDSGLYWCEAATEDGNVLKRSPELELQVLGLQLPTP

B1: Ab No. 246.4 (WT) (antibody)
chain 1: MGWSCIILFLVATATGVHSQVQLQESGPGLVKPSETLSLTCTVSGGSISSYYWSWIRQPPGKGLEWIGYIYYSGSTNYNPSLKSRVTISVDTSKSQFSLKLSSVTAADTAVYYCARDIPAFAFDIWGQGTMVIVSSASTKGPSVFPLAPCSRSTSESTAALGCLVKDYFPEPVTVSWNSGALTSGVHTFPAVLQSSGLYSLSSVVTVPSSSLGTKTYTCNVDHKPSNTKVDKRV[human IgG4 Fc with S228P (EU numbers) not listed]
chain 2: MGWSCIILFLVATATGVHSEIVLTQSPATLSLSPGERATLSCRASQSVSYYLAWYQQKPGQAPRLLIYDAFNRATGIPARFSGSGSGTDFTLTISSLEPEDFAVYYCQQRINWPLTFGGGTKVEIKRTVAAPSVFIFPPSDEQLKSGTASVVCLLNNFYPREAKVQWKVDNALQSGNSQESVTEQDSKDSTYSLSSTLTLSKADYEKHKVYACEVTHQGLSSPVTKSFNRGEC
B2: Antibody No. 173.4 (antibody)
light: DIQMTQSPSSLSASVGDRVTITCQASQDITNYLTWYQQKPGNAPKLLIYDASNLETGVPSRFSGSGSGTDFTFTINSLQPEDVATYFCQQYDNLPTFGGGTKVEIKRTVAAPSVFIFPPSDEQLKSGTASVVCLLNNFYPREAKVQWKVDNALQSGNSQESVTEQDSKDSTYSLSSTLTLSKADYEKHKVYACEVTHQGLSSPVTKSFNRGEC
heavy: QLQLQESGPGLVKPSETLSLTCIVSGGSISSSGYYWGWIRQPPGKGLEWIGSIFYSGNTHYNPSLKSRVTIPVDTSKNQFSLKLSSVTAADSAVYYCARRDILTGPFDYWGQGTLVTVSSAASTKGPSVFPLAPCSRSTSESTAALGCLVKDYFPEPVTVSWNSGALTSGVHTFPAVLQSSGLYSLSSVVTVPSSSLGTKTYTCNVDHKPSNTKVDKRV[human IgG4 Fc not listed]

How the values were obtained:
[1] = biological target: T1, immunoglobulin gamma Fc receptor 1 …; assay: AlphaLISA FcγR1 binding assay
[2] = biological target: T2, FcRn receptor (biotinylated, AlphaLisa binding kit Perkin Elmer #AL3095C) (UniProt P55899 part only; P61769 part only, biotinylated (sites not given)); assay: AlphaLISA FcRn binding assay
[3] = biological target: T1, immunoglobulin gamma Fc receptor 1 …; assay: AlphaLISA FcγR1 binding assay
[4] = biological target: T2, FcRn receptor (biotinylated, AlphaLisa …); assay: AlphaLISA FcRn binding assay; remark: listed apart in the source

Binder	EC50 [1]	EC50 [2] [nM]	EC50 [3]	EC50 [4]
B1	9.7 nM and 1.46 µg/mL	6.1		
B2			48 nM and 7.23 µg/mL	11.8 nM and 1.76 µg/mL
